Measured values: patent US20110059013A1, “ANTI-ROBO4 ANTIBODIES AND USES THEREFOR” (Genentech, Inc., priority 2007, published 2011)

What was measured:
HUVEC [1] = experiment: Bead outgrowth assay, HUVEC tube elongation; assay type: cell-based, human; details: 50 μg/ml antibody, versus control antibody E25
Protocol: For the bead outgrowth assay, dextran-coated Cytodex 3 microcarrier beads (Amersham) were incubated with HUVECs (400 cells per bead) in EGM-2, overnight at 37° C. and 5% CO2. To induce clotting, 0.5 ml cell-coated beads in PBS with 2.5 μg/ml fibrinogen (200 beads/ml) was added into one well of a 24-well tissue culture plate containing 0.625 units thrombin and incubated for 5 min at room temperature and then for 20 min at 37° C. The clot was equilibrated in EGM-2 for 30 min at 37° C. The medium was then replaced with EGM-2 containing skin fibroblast cells (Detroit 551, 20,000 cells/ml). Antibodies (50 μg/ml) were added to each well, and the assay was monitored for 8 days with change in medium every alternate day. Images of the beads were captured by an inverted microscope, and concentric circles spaced at 100, 200, and 300 μm were drawn around the bead in each image. The number of vessels crossing each circle was counted 10-12 beads were used per condition for quantification (Nakatsu et al., Microvascular Research 66: 102-112 (2003)).

[2] = tested on: human non-small cell lung carcinoma SK-MES-1; experiment: In vivo tumor growth, SK-MES-1 xenograft; parameters: species or system mouse; details: naked antibody, 10 mg/kg i.p. twice weekly for 5 weeks, nude mice
Protocol: (§1) For this study, each HRLN female nude mouse received a 1 mm^3 tumor fragment s.c. implant in the flank. Tumor growth was monitored twice weekly by caliper measurements. When tumors reached an average size of 80-120 mm^3, mice were sorted to give nearly identical group mean tumor sizes, and treatment was started (Day 1). Animals were dosed twice weekly i.p. with 10 mg/kg anti-Robo4 and/or 5 mg/kg anti-VEGF or control antibody for 5 weeks. All treatments were body weight-adjusted at 0.2 mg/20 g.

human Robo4 = target: T1, human Robo4 (Homo sapiens, UniProt Q8WZ75); experiment: BIAcore surface plasmon resonance binding analysis, human Robo4; details: Human Robo4, immobilized Fab, 25° C.
T1 construct: made in house; host or cells: CHO cells (transient transfection, vector pRK5)
T1 sequence (Q8WZ75 with tags, fused parts or gaps): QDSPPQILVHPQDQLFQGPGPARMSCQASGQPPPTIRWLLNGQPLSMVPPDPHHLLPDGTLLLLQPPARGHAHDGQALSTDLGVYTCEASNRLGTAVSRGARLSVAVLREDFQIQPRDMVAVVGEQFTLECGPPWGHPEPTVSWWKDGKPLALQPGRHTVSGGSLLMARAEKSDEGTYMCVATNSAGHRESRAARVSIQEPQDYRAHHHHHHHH
Protocol: (§2) Affinity determinations were performed by surface plasmon resonance using a BIAcore™ 2000 system (BIAcore, Piscataway, N.J.). Robo4-His was immobilized (˜1000 response units (RU)) on a CM5 chip and varied concentrations of Fab (4 to 500 nM) in PBST were injected. After each injection the chip was regenerated using 100 mM HCl.
(§3) The binding affinity of three phage-derived anti-Robo4 antibodies for soluble Robo4 extracellular domain (ECD) was determined by surface plasmon resonance measurement using a BIACORE® 3000 system (Biacore, Inc., Piscataway, N.J.). […] Briefly, carboxymethylated dextran biosensor chips (CM5, Biacore Inc.) were activated with N-ethyl-N′-(3-dimethylaminopropyl)-carbodiimide hydrochloride (EDC) and N-hydroxysuccinimide (NHS) according to the supplier's instructions. These activated chips were coated with anti-Robo Fab by dilution to 5 ug/ml with 10 mM sodium acetate, pH 4.8, before injection at a flow rate of 5 μl/minute to achieve approximately 500 response units (RU) of coupled antibody. Next, 1M ethanolamine was injected to block unreacted groups. For kinetics measurements, two-fold serial dilutions of human or mouse-ECD-His tagged soluble antigen (approximately 500 nM to approximately 7.8 nM) were injected in PBS with 0.05% Tween® 20 at 25° C. at a flow rate of 25 μl/min. Binding response was corrected by subtracting the RU from a blank flow cell. Association rates (kon) and dissociation rates (koff) were calculated using a simple one-to-one Langmuir binding model (BIAevaluation Software version 3.2). The equilibrium dissociation constant (KD) was calculated as the ratio kdissociation/kassociation.

Murine Robo4 = target: T2, Murine Robo4 (Mus musculus, UniProt Q8C310); experiment: BIAcore surface plasmon resonance binding analysis, murine Robo4
T2 construct: Murine Robo4 (M1 to H232) was cloned into pRK5 as fusion to a C-terminal Histidine tag only; made in house; host or cells: CHO cells (transient transfection, vector pRK5)
T2 sequence (Q8C310 28-232): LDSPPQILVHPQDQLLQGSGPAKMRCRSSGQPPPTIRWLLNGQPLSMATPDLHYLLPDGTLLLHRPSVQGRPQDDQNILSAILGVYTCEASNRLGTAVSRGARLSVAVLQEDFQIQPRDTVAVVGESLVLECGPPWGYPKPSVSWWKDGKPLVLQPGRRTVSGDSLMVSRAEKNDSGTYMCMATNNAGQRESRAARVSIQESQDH
Protocol: as §2, §3

[3] = target: T3, human Robo4 expressed endogenously in HUVEC cells (Homo sapiens, UniProt Q8WZ75); experiment: FACS binding to HUVEC cells; assay type: cell-based
T3 construct: endogenous in cells; host or cells: HUVEC
T3 sequence (Q8WZ75 28-1007): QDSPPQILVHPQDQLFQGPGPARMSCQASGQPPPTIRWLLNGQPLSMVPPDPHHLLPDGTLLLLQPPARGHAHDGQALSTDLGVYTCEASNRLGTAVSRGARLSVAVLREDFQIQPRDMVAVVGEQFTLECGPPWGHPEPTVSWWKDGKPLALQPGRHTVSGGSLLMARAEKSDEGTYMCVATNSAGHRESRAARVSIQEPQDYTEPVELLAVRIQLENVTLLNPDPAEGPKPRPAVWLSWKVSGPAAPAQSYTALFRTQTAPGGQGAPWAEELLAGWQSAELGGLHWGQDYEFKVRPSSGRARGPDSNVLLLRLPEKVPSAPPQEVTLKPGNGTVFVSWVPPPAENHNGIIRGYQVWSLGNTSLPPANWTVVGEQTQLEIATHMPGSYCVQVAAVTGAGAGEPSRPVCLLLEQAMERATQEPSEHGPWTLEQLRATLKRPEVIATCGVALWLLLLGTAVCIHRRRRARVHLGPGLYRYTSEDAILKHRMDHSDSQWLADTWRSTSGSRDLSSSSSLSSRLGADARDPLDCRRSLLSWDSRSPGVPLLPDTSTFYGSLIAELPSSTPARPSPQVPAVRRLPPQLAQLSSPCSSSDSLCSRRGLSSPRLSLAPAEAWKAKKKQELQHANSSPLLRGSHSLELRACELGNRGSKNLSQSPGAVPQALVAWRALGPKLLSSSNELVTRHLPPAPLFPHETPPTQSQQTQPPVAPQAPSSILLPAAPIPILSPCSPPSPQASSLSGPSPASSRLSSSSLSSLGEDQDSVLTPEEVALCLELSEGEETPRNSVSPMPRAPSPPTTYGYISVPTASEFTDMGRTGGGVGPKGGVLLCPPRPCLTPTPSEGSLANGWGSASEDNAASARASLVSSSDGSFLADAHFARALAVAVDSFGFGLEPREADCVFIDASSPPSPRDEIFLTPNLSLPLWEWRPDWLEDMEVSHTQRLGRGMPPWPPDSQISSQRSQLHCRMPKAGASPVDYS

[4] = tested on: MDA-MB-231 breast cancer xenograft; experiment: In vivo tumor growth, MDA-MB-231 breast cancer xenograft; details: naked antibody, Fo5 mouse model with MDA-MB-231 xenograft
Protocol: as §1

[5] = target: T4, murine Robo4 expressed endogenously in MS1 cells (Mus musculus, UniProt Q8C310); experiment: FACS binding to MS1 cells; assay type: cell-based
T4 construct: endogenous in cells; host or cells: MS1 mouse microvascular endothelial cells
T4 sequence (Q8C310 28-1012): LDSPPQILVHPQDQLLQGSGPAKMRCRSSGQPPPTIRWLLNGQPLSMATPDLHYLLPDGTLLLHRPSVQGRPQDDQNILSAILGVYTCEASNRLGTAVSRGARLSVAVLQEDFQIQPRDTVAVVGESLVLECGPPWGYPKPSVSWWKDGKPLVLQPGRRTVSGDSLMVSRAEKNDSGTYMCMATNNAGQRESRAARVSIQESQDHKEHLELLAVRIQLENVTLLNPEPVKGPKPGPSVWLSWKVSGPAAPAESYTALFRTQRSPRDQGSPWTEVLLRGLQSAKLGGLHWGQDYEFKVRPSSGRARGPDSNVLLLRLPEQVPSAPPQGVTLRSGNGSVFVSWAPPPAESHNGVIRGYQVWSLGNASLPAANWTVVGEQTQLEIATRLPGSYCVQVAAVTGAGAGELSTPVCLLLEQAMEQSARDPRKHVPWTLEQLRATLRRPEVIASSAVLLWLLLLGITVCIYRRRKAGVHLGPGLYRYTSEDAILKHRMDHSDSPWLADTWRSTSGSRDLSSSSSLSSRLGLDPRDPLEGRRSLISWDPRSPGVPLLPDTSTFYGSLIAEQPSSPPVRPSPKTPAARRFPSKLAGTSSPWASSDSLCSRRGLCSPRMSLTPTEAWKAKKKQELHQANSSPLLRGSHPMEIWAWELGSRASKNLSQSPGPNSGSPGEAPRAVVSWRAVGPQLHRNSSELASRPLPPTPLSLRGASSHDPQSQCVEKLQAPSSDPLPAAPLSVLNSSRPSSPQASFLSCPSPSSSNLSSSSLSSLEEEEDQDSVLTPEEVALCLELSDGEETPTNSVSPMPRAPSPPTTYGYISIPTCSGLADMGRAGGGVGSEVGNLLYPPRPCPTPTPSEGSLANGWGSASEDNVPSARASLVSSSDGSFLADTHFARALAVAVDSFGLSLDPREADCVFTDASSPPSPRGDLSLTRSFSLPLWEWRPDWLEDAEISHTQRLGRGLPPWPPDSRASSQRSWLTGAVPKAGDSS

HUVEC [6] = experiment: HUVEC cellular migration assay; assay type: cell-based, human; details: HUVECs pre-incubated with VEGF, 16 hours
Protocol: Robo4-Fc and Robo4-His were contacted with vascular ECs using a HUVEC migration assay and in the presence or absence of VEGF.
Endothelial cell migration was not blocked by anti-Robo4 antibody in an in vitro assay using human umbilical vascular endothelial cells (HUVEC) cellular migration assay. HUVECs endogenously express human Robo4. The assay was performed as follows. HUVECs were pre-incubated for 2 hours with VEGF.

[7] = Murine Robo4, immobilized Fab, 25° C.

B1: YW71.22: phage-derived anti-Robo4 antibody, heavy chain SEQ ID NO:169, light chain SEQ ID NO:170 (antibody)
heavy: EVQLVESGGGLVQPGGSLRLSCAASGFTINGYYIHWVRQAPGKGLEWVGFIYPAGGDTDYADSVKGRFTISADTSKNTAYLQMNSLRAEDTAVYYCARLIGNKFGWSSYGMDYWGQGTLVTVSS[not shown - human IgG1 constant region]
light: DIQMTQSPSSLSASVGDRVTITCRASQDVSTAVAWYQQKPGKAPKLLIYSASFLYSGVPSRFSGSGSGTDFTLTISSLQPEDFATTYCQQSYTTPPTFGQGTKVEIKRTVAAPSVFIFPPSDEQLKSGTASVVCLLNNFYPREAKVQWKVDNALQSGNSQESVTEQDSKDSTYSLSSTLTLSKADYEKHKVYACEVTHQGLSSPVTKSFNRGEC
modifications: antibody heavy chain; antibody light chain
Q: Which results are given for B1?
A: HUVEC tube elongation (HUVEC [1]; 8 days): significantly inhibits HUVEC tube elongation; reduction of number of tubes with a length of 300 μm or more (HUVEC [1]): 60%; tumor growth inhibition [2]: not inhibited; Kd (human Robo4): 13 nM; ka (human Robo4): 2.90E+05; kd (human Robo4): 3.70E−03; cross-reactivity with human and mouse Robo4 (Murine Robo4; BIAcore): cross-reacts with human and mouse Robo4; Kd (Murine Robo4; [7]): 6.2 nM; ka (Murine Robo4; [7]): 4.50E+05; kd (Murine Robo4; [7]): 2.80E−03; binding to human Robo4 on HUVEC cells (FACS) [3]: cross-reacts with human and murine Robo4; reduction of tumor growth [4]: no reduction of tumor growth; binding to murine Robo4 on MS1 cells (FACS) [5]: cross-reacts with human and murine Robo4; blocking of endothelial cell migration (HUVEC [6]): not blocked
